± gives the uncertainty stated by the source. The sequences are guide strands of siRNAs; only the seed at positions 2 to 7 varies.
Experiments:
H460 = experiment: cell viability relative to lipid-only control; higher = less toxic; conditions: concentration: 10 nM; 96 h; Homo sapiens
HeyA8 = experiment: as above; conditions: concentration: 10 nM; 96 h; Homo sapiens
M565 = experiment: as above; conditions: concentration: 10 nM; 96 h; Mus musculus
3LL = experiment: cell viability relative to siNT1 control; HeyA8 human ovarian and H460 human lung cancer; M565 mouse liver and 3LL mouse lung cancer; siNT1 is a non-toxic control siRNA; higher = less toxic; conditions: concentration: 10 nM; 96 h; Mus musculus
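For cell viability relative to lipid-only control in this document: reverse lipid transfection in 384-well plates, in triplicate, of duplexes on a non-toxic 19mer backbone with passenger strand 2′-O-methylated at positions 1 and 2, luminescence viability read-out.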
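For cell viability relative to siNT1 control in this document: Luminescence-based viability of cells reverse transfected in 384-well plates with lipid-complexed siRNAs built on a non-toxic 19mer backbone whose passenger strand carries 2′-O-methyl groups at positions 1 and 2, triplicates.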

UUAACUGACAUGUAAACCAAA
cell viability (H460): 77.3 ± 7.7%
cell viability (HeyA8): 103 ± 11%
cell viability (M565): 82.9 ± 11%
cell viability (3LL): 101 ± 10%

UUAACUUACAUGUAAACCAAA
cell viability (H460): 76.4 ± 9.2%
cell viability (HeyA8): 93.2 ± 3.9%
cell viability (M565): 116 ± 15%
cell viability (3LL): 93.7 ± 10%

UUAAGAAACAUGUAAACCAAA
cell viability (H460): 67.8 ± 5.6%
cell viability (HeyA8): 88.1 ± 4.7%
cell viability (M565): 98.3 ± 11%
cell viability (3LL): 88.4 ± 12%

UUAAGACACAUGUAAACCAAA
cell viability (H460): 70 ± 2.7%
cell viability (HeyA8): 65.5 ± 6%
cell viability (M565): 62.2 ± 13%
cell viability (3LL): 51 ± 7.7%

UUAAGAGACAUGUAAACCAAA
cell viability (H460): 89 ± 21%
cell viability (HeyA8): 90.8 ± 5%
cell viability (M565): 95.4 ± 17%
cell viability (3LL): 80 ± 3.9%

UUAAGAUACAUGUAAACCAAA
cell viability (H460): 74.9 ± 7%
cell viability (HeyA8): 52.4 ± 9.5%
cell viability (M565): 71.2 ± 11%
cell viability (3LL): 63.5 ± 4.7%

UUAAGCAACAUGUAAACCAAA
cell viability (H460): 70.6 ± 5.3%
cell viability (HeyA8): 101 ± 4.9%
cell viability (M565): 81.3 ± 9.1%
cell viability (3LL): 93.7 ± 9.2%

UUAAGCCACAUGUAAACCAAA
cell viability (H460): 44.6 ± 4.5%
cell viability (HeyA8): 52 ± 6.5%
cell viability (M565): 34.9 ± 6%
cell viability (3LL): 6.94 ± 0.38%

UUAAGCGACAUGUAAACCAAA
cell viability (H460): 91.7 ± 8.1%
cell viability (HeyA8): 103 ± 4.3%
cell viability (M565): 87.9 ± 10%
cell viability (3LL): 95 ± 7.8%

UUAAGCUACAUGUAAACCAAA
cell viability (H460): 59.1 ± 6.5%
cell viability (HeyA8): 73.9 ± 6.9%
cell viability (M565): 41.1 ± 4.2%
cell viability (3LL): 35 ± 5.5%

UUAAGGAACAUGUAAACCAAA
cell viability (H460): 79.4 ± 9.2%
cell viability (HeyA8): 85.6 ± 5.3%
cell viability (M565): 61 ± 5.3%
cell viability (3LL): 83.2 ± 10%

UUAAGGCACAUGUAAACCAAA
cell viability (H460): 23.3 ± 1.1%
cell viability (HeyA8): 13.7 ± 1.2%
cell viability (M565): 9.08 ± 4.3%
cell viability (3LL): 10.1 ± 4%

UUAAGGGACAUGUAAACCAAA
cell viability (H460): 55.8 ± 9.2%
cell viability (HeyA8): 74.2 ± 5.4%
cell viability (M565): 16.9 ± 3%
cell viability (3LL): 35.2 ± 7.2%

UUAAGGUACAUGUAAACCAAA
cell viability (H460): 36.5 ± 1.9%
cell viability (HeyA8): 62.2 ± 2.9%
cell viability (M565): 21.5 ± 4.2%
cell viability (3LL): 51.1 ± 12%

UUAAGUAACAUGUAAACCAAA
cell viability (H460): 88 ± 21%
cell viability (HeyA8): 92.1 ± 6.7%
cell viability (M565): 91.2 ± 11%
cell viability (3LL): 97.4 ± 9.3%

UUAAGUCACAUGUAAACCAAA
cell viability (H460): 63.9 ± 5.5%
cell viability (HeyA8): 59.4 ± 7.9%
cell viability (M565): 28.5 ± 5.1%
cell viability (3LL): 7.88 ± 3.9%

UUAAGUGACAUGUAAACCAAA
cell viability (H460): 61.2 ± 8.6%
cell viability (HeyA8): 55.8 ± 3.6%
cell viability (M565): 91.1 ± 17%
cell viability (3LL): 85.6 ± 5.7%

UUAAGUUACAUGUAAACCAAA
cell viability (H460): 62.6 ± 9.4%
cell viability (HeyA8): 68.1 ± 5.2%
cell viability (M565): 41.6 ± 12%
cell viability (3LL): 49.3 ± 3.8%

UUAAUAAACAUGUAAACCAAA
cell viability (H460): 87 ± 24%
cell viability (HeyA8): 86 ± 5.5%
cell viability (M565): 99 ± 4%
cell viability (3LL): 100 ± 3.4%

UUAAUACACAUGUAAACCAAA
cell viability (H460): 81.1 ± 11%
cell viability (HeyA8): 79.5 ± 5.4%
cell viability (M565): 56.6 ± 7.4%
cell viability (3LL): 88.1 ± 9.5%

UUAAUAGACAUGUAAACCAAA
cell viability (H460): 68.5 ± 14%
cell viability (HeyA8): 82 ± 0.96%
cell viability (M565): 94.5 ± 5.3%
cell viability (3LL): 85.2 ± 8.2%

UUAAUAUACAUGUAAACCAAA
cell viability (H460): 59 ± 6.7%
cell viability (HeyA8): 65.8 ± 3.1%
cell viability (M565): 66.1 ± 8.6%
cell viability (3LL): 80 ± 14%

UUAAUCAACAUGUAAACCAAA
cell viability (H460): 80.8 ± 13%
cell viability (HeyA8): 86.5 ± 3.1%
cell viability (M565): 85.1 ± 19%
cell viability (3LL): 97.1 ± 7.3%

UUAAUCCACAUGUAAACCAAA
cell viability (H460): 32.8 ± 1.5%
cell viability (HeyA8): 37.6 ± 7%
cell viability (M565): 59.9 ± 6.3%
cell viability (3LL): 6.77 ± 0.72%

UUAAUCGACAUGUAAACCAAA
cell viability (H460): 81.1 ± 26%
cell viability (HeyA8): 86.6 ± 1.7%
cell viability (M565): 105 ± 16%
cell viability (3LL): 97.3 ± 15%

UUAAUCUACAUGUAAACCAAA
cell viability (H460): 76.4 ± 19%
cell viability (HeyA8): 66.4 ± 4.2%
cell viability (M565): 83.2 ± 20%
cell viability (3LL): 92.2 ± 14%

UUAAUGAACAUGUAAACCAAA
cell viability (H460): 68 ± 5.3%
cell viability (HeyA8): 85 ± 12%
cell viability (M565): 55.6 ± 8.6%
cell viability (3LL): 59 ± 5.3%

UUAAUGCACAUGUAAACCAAA
cell viability (H460): 55.1 ± 7.7%
cell viability (HeyA8): 57.3 ± 1.6%
cell viability (M565): 83.4 ± 17%
cell viability (3LL): 19.5 ± 3%

UUAAUGGACAUGUAAACCAAA
cell viability (H460): 58.1 ± 6.2%
cell viability (HeyA8): 77.3 ± 7.9%
cell viability (M565): 16.2 ± 3.3%
cell viability (3LL): 31.6 ± 1.6%

UUAAUGUACAUGUAAACCAAA
cell viability (H460): 36.6 ± 2.4%
cell viability (HeyA8): 69.5 ± 2.4%
cell viability (M565): 34.5 ± 8.8%
cell viability (3LL): 36.5 ± 5.8%

UUAAUUAACAUGUAAACCAAA
cell viability (H460): 74.2 ± 18%
cell viability (HeyA8): 95.6 ± 8%
cell viability (M565): 105 ± 12%
cell viability (3LL): 100 ± 13%

UUAAUUCACAUGUAAACCAAA
cell viability (H460): 69.3 ± 4%
cell viability (HeyA8): 66.5 ± 5.8%
cell viability (M565): 59.6 ± 12%
cell viability (3LL): 57.6 ± 6.1%

UUAAUUGACAUGUAAACCAAA
cell viability (H460): 74.9 ± 18%
cell viability (HeyA8): 92.3 ± 11%
cell viability (M565): 83.2 ± 11%
cell viability (3LL): 89.7 ± 10%

UUAAUUUACAUGUAAACCAAA
cell viability (H460): 73.4 ± 18%
cell viability (HeyA8): 78.2 ± 5.4%
cell viability (M565): 104 ± 9.6%
cell viability (3LL): 93.5 ± 12%

UUACAAAACAUGUAAACCAAA
cell viability (H460): 99.1 ± 6.6%
cell viability (HeyA8): 98.5 ± 4.3%
cell viability (M565): 102 ± 22%
cell viability (3LL): 106 ± 8.4%

UUACAACACAUGUAAACCAAA
cell viability (H460): 68.8 ± 4.7%
cell viability (HeyA8): 89.8 ± 1.6%
cell viability (M565): 105 ± 32%
cell viability (3LL): 96.4 ± 18%

UUACAAGACAUGUAAACCAAA
cell viability (H460): 71.1 ± 0.97%
cell viability (HeyA8): 99.6 ± 3.8%
cell viability (M565): 68.6 ± 4.8%
cell viability (3LL): 98.9 ± 3.2%

UUACAAUACAUGUAAACCAAA
cell viability (H460): 83.8 ± 8.5%
cell viability (HeyA8): 95.1 ± 2.3%
cell viability (M565): 74.8 ± 2.1%
cell viability (3LL): 85.2 ± 14%

UUACACAACAUGUAAACCAAA
cell viability (H460): 66.5 ± 1.4%
cell viability (HeyA8): 104 ± 3.1%
cell viability (M565): 73.2 ± 14%
cell viability (3LL): 97.8 ± 9.5%

UUACACCACAUGUAAACCAAA
cell viability (H460): 18.1 ± 1.4%
cell viability (HeyA8): 16.5 ± 2.9%
cell viability (M565): 32.7 ± 8.6%
cell viability (3LL): 22.8 ± 2.6%

UUACACGACAUGUAAACCAAA
cell viability (H460): 65.3 ± 7.9%
cell viability (HeyA8): 97.6 ± 4.1%
cell viability (M565): 74.5 ± 7.1%
cell viability (3LL): 22.3 ± 0.66%

UUACACUACAUGUAAACCAAA
cell viability (H460): 73 ± 12%
cell viability (HeyA8): 88.7 ± 4.4%
cell viability (M565): 51 ± 16%
cell viability (3LL): 73.4 ± 12%

UUACAGAACAUGUAAACCAAA
cell viability (H460): 90.3 ± 8.3%
cell viability (HeyA8): 87.3 ± 4.2%
cell viability (M565): 49.6 ± 8.2%
cell viability (3LL): 40.2 ± 6.1%

UUACAGCACAUGUAAACCAAA
cell viability (H460): 63.9 ± 7.9%
cell viability (HeyA8): 71.6 ± 5.3%
cell viability (M565): 34.5 ± 7.1%
cell viability (3LL): 22.1 ± 9%

UUACAGGACAUGUAAACCAAA
cell viability (H460): 57.1 ± 6.3%
cell viability (HeyA8): 82.2 ± 5.3%
cell viability (M565): 72.2 ± 1.9%
cell viability (3LL): 87.8 ± 2.7%

UUACAGUACAUGUAAACCAAA
cell viability (H460): 58.5 ± 5.2%
cell viability (HeyA8): 72.7 ± 2%
cell viability (M565): 44.7 ± 9.3%
cell viability (3LL): 78.3 ± 4.4%

UUACAUAACAUGUAAACCAAA
cell viability (H460): 58.3 ± 4%
cell viability (HeyA8): 94.8 ± 1.4%
cell viability (M565): 91.9 ± 6.4%
cell viability (3LL): 103 ± 6.7%

UUACAUCACAUGUAAACCAAA
cell viability (H460): 49 ± 4.1%
cell viability (HeyA8): 74 ± 4%
cell viability (M565): 102 ± 6.4%
cell viability (3LL): 41.9 ± 15%

UUACAUGACAUGUAAACCAAA
cell viability (H460): 72 ± 4%
cell viability (HeyA8): 83.8 ± 8.4%
cell viability (M565): 106 ± 15%
cell viability (3LL): 108 ± 9.8%

UUACAUUACAUGUAAACCAAA
cell viability (H460): 72.1 ± 13%
cell viability (HeyA8): 94.3 ± 1.1%
cell viability (M565): 104 ± 15%
cell viability (3LL): 102 ± 9.1%

UUACCAAACAUGUAAACCAAA
cell viability (H460): 67 ± 4.5%
cell viability (HeyA8): 88.6 ± 0.52%
cell viability (M565): 85.4 ± 12%
cell viability (3LL): 70.6 ± 6.9%

UUACCACACAUGUAAACCAAA
cell viability (H460): 35.6 ± 3.2%
cell viability (HeyA8): 63.5 ± 2.2%
cell viability (M565): 41.5 ± 8.4%
cell viability (3LL): 48.3 ± 5%

UUACCAGACAUGUAAACCAAA
cell viability (H460): 36.6 ± 2.5%
cell viability (HeyA8): 70.1 ± 5.1%
cell viability (M565): 66.6 ± 17%
cell viability (3LL): 57 ± 14%

UUACCAUACAUGUAAACCAAA
cell viability (H460): 44.3 ± 4.3%
cell viability (HeyA8): 67.9 ± 2.1%
cell viability (M565): 78.1 ± 15%
cell viability (3LL): 65.4 ± 4.1%

UUACCCAACAUGUAAACCAAA
cell viability (H460): 63.3 ± 12%
cell viability (HeyA8): 50.5 ± 1.2%
cell viability (M565): 40.8 ± 8.3%
cell viability (3LL): 65.3 ± 2.2%

UUACCCCACAUGUAAACCAAA
cell viability (H460): 15.3 ± 1.4%
cell viability (HeyA8): 52.8 ± 4.8%
cell viability (M565): 25 ± 4.9%
cell viability (3LL): 5.68 ± 1.3%

UUACCCGACAUGUAAACCAAA
cell viability (H460): 71.2 ± 6.2%
cell viability (HeyA8): 74.1 ± 3.2%
cell viability (M565): 50.9 ± 8.6%
cell viability (3LL): 68.4 ± 3.9%

UUACCCUACAUGUAAACCAAA
cell viability (H460): 36.4 ± 2.6%
cell viability (HeyA8): 47.4 ± 5.4%
cell viability (M565): 21.9 ± 5.5%
cell viability (3LL): 14 ± 2.5%

UUACCGAACAUGUAAACCAAA
cell viability (H460): 64.9 ± 4.9%
cell viability (HeyA8): 89.2 ± 2%
cell viability (M565): 100 ± 21%
cell viability (3LL): 84.2 ± 10%
